Measurements reported in PubChem BioAssay AID493035 (The Scripps Research Institute Molecular Screening Center, 2011).
Values joined by “and” are separate entries in the source; they are usually repeats but may differ in a detail not shown here. Equal entries are not always repeated. Among all 2,000 compounds or so, about 45 (2%) were called active.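 The calls were made as follows: active = inhibition above the mean of all tested compounds plus 3 SD (cut at about 49% in these data); inactive = the rest.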 Some of the results follow.

target: Perilipin-5 (Homo sapiens) + 1-acylglycerol-3-phosphate O-acyltransferase ABHD5 (Homo sapiens) (UniProt Q00G26+Q8WTS1); assay: ABHD5-PLIN5 interaction inhibitors, pilot screen, cell lysate, split luciferase complementation, luminescence, NIH validation set (AID 493035);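 also: 0% = DMSO only wells while the 100% control is not stated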; conditions: split G. princeps luciferase complementation, lysates, 4 h, at 7.9 µM, active compounds read high
Sequence of UniProt Q00G26 (Q00G26 whole entry, looked up): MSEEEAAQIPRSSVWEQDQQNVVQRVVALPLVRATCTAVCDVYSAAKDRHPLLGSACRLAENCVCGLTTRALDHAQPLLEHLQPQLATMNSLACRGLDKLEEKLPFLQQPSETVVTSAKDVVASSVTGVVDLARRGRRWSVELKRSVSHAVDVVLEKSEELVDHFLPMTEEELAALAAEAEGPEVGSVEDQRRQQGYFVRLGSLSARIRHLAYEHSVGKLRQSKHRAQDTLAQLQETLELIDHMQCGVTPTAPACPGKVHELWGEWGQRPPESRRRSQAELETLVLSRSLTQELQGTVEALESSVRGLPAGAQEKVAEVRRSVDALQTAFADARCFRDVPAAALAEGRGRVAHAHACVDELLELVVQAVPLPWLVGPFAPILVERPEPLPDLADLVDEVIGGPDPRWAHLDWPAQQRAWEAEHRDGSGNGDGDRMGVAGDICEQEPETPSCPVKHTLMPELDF
Sequence of UniProt Q00G26 (Q8WTS1 whole entry, looked up): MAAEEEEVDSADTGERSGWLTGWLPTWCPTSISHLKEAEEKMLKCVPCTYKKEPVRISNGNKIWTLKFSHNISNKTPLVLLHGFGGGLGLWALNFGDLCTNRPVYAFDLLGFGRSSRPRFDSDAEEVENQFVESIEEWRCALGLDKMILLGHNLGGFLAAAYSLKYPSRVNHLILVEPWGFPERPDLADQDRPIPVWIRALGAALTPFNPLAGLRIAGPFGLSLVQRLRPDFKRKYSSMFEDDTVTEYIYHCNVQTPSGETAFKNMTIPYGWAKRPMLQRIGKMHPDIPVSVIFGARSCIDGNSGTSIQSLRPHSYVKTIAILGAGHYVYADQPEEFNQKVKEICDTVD

Row | Compound | inhibition
1 | OC(c1ccccc1)(c1ccccc1)C1CCNCC1 | inactive: -13.8%
2 | COc1ccc(-c2nc3ccccc3c(=O)o2)cc1 | inactive: -1.16%
3 | CC(C)CCC1(CN2CCCC2=O)C(=O)NC(=O)NC1=O | inactive: 6.93%
4 | CCOc1ccc(N2C(=O)NC(=O)/C(=C\c3cc(OC)c(OC)cc3[N+](=O)[O-])C2=O)cc1 | active: 66.2%
5 | CC(=O)[C@H]1CC[C@H]2[C@@H]3CC[C@H]4C[C@H](O)CC[C@]4(C)[C@H]3C(=O)C[C@]12C | inactive: -7.85%
6 | COc1ccc(NC2=NCC(C)S2)cc1 (stereo not given) | inactive: 0.87%
7 | c1ccc2c3c([nH]c2c1)CNCC3 | inactive: -0.94%
8 | CN(C)[C@@H]1C(=O)C(C(N)=O)=C(O)[C@@]2(O)C(=O)C3=C(O)c4c(O)cccc4[C@@](C)(O)[C@H]3[C@H](O)[C@@H]12 | inactive: 13.2%
9 | Cn1c(O)c(C=NCCc2c[nH]c3ccccc23)c(=O)n(C)c1=O | inactive: 3.49%
10 | CC(=O)c1ccc(-c2ccccc2)cc1 | inactive: 8.7%
11 | CCCC(=O)OCC[N+](C)(C)C | inactive: -8.39%
12 | C[C@]12CCC(=O)C(O)=C1CC[C@@H]1[C@@H]2CC[C@]2(C)C(=O)CC[C@@H]12 | inactive: -7.16%
13 | Cc1ccc2c(c1)C1CN(C)CCC1N2C(=O)Nc1cccc(Cl)c1 (stereo not given) | inactive: -3.27%
14 | CCN(CC)CCOC(=O)C(O)(c1ccccc1)c1ccccc1 | inactive: 0.42%
15 | O=C1C=Cc2ccccc2C1=O | active: 59.1%
16 | C[C@]12CC[C@@H]3c4ccc(O)c(O)c4CC[C@H]3[C@@H]1CC[C@@H]2O | inactive: 22.1%
17 | O=c1[nH]c2ccccc2n1C1CCN(CCCC(c2ccc(F)cc2)c2ccc(F)cc2)CC1 | inactive: -10.5%
18 | Cc1cc2c(C(C)C)c(O)c(O)c(C=O)c2c(O)c1-c1c(C)cc2c(C(C)C)c(O)c(O)c(C=O)c2c1O | active: 50.7%
19 | Cc1cc(Cl)ccc1OC(C)C(=O)O (stereo not given) | inactive: -17.5%
20 | CC(=O)Nc1cc([As](=O)(O)O)ccc1O | inactive: -10.9%
21 | C[C@]12CCC(=O)C=C1CCC1C2CC[C@@]2(C)C1CC[C@@]2(O)CC#N (stereo not given in full) | inactive: -3.89%
22 | CC12CN3CC(C)(CN(C1)C3c1cccnc1)C2=O (stereo not given) | inactive: 4.61%

Row | Compound | inhibition
23 | CN[C@H](C)[C@H](O)c1ccccc1 | inactive: -0.5%
24 | c1ccc2c(c1)[nH]c1cnccc12 | inactive: 0.21%
25 | CC(C)C(=O)Nc1ccc(S(=O)(=O)N2CC3CC(C2)c2cccc(=O)n2C3)cc1 (stereo not given) | inactive: -10.2%
26 | O=Cc1cn(Cc2ccc(F)cc2)c2ccccc12 | inactive: 2.39%
27 | COc1ccccc1CN1CCCCC1c1cccnc1 (stereo not given) | inactive: -4.35%
28 | Nc1ccc([As](=O)(O)O)cc1 | inactive: 6.22%
29 | CC12CN3CC(C)(CN(C1)C3c1cccs1)C2=O (stereo not given) | inactive: -6.92%
30 | O=C1CC[C@@]2(O)[C@H]3Cc4ccc(O)c5c4[C@@]2(CCN3CC2CC2)[C@H]1O5 | inactive: 2.6%
31 | NCC1(c2ccc3c(c2)OCCO3)CCCC1 | inactive: -7.35%
32 | CN1C(=O)CN=C(c2ccc(Cl)cc2)c2cc(Cl)ccc21 | inactive: -14.1%
33 | O=c1cccc2n1C[C@H]1C[C@@H]2CN2CCCC[C@@H]12 | inactive: -1.84%
34 | CCC1(c2ccccc2)C(=O)N(COC)C(=O)N(COC)C1=O | inactive: 5.52%
35 | c1ccc(Cn2ccnc2)cc1 | inactive: -4.82%
36 | CC(C)C[C@H]1C(=O)N2CCCC2[C@]2(O)O[C@](NC(=O)[C@@H]3C=C4c5cccc6[nH]cc(c56)CC4N(C)C3)(C(C)C)C(=O)N12 (stereo not given in full) | inactive: 26.8%
37 | CC(C)[C@H]1C(=O)N2CCC[C@H]2[C@]2(O)O[C@](NC(=O)[C@@H]3C=C4c5cccc6[nH]cc(c56)C[C@H]4N(C)C3)(C(C)C)C(=O)N12 | inactive: 14.3%
38 | C[N+]1(C)C2CCC1CC(OC(=O)C(CO)c1ccccc1)C2 (stereo not given) | inactive: -3.97%
39 | O=c1c2ccccc2[se]n1-c1ccccc1 | active: 95.1%
40 | CC(C)(C)C(O)C(Oc1ccc(Cl)cc1)n1cncn1 (stereo not given) | inactive: -18.2%
41 | c1ccc2c(c1)Nc1ccccc1S2 | inactive: -1.15%
42 | NCC(O)c1ccc(O)cc1 (stereo not given) | inactive: -7.13%
43 | C[C@H]1CC[C@@]2(C)[C@@H](CC[C@@H]3[C@@H]2CC[C@]2(C)[C@@H](O)CC[C@@H]32)C1 | inactive: -0.69%
44 | S=C1NCCN1 | inactive: -0.74%

Row | Compound | inhibition
45 | C[N+]1(C)[C@@H]2CC(OC(=O)[C@H](CO)c3ccccc3)C[C@H]1[C@@H]1O[C@@H]12 (stereo not given in full) | inactive: -0.61% and inactive: 7.09%
46 | CCN(CC)C(=O)N[C@H]1C[C@@H]2c3cccc4[nH]cc(c34)C[C@H]2N(C)C1 | inactive: 5.32%
47 | CC[C@@H](CO)NC(=O)[C@@H]1C=C2c3cccc4c3c(cn4C)C[C@H]2N(C)C1 | inactive: 1.19%
48 | CC12CN3CC(c4ccccc4)(CN(C1)C31CCCCC1)C2=O | inactive: -2.32%
49 | c1ccc2c(c1)OCC(C1=NCCN1)O2 (stereo not given) | inactive: 1.63%
50 | CC[N+]1(C)CCCC(OC(=O)C(O)(c2ccccc2)c2ccccc2)C1 (stereo not given) | inactive: -9.33%
51 | Clc1ccc(COC(Cn2ccnc2)c2ccc(Cl)cc2Cl)cc1 (stereo not given) | inactive: -3.94%
52 | C[C@H]1CCCC(=O)CCCCCc2cc(O)cc(O)c2C(=O)O1 | inactive: 6.49%
53 | O=C1NCCN2CCCC12 (stereo not given) | inactive: 0.54%
54 | CN1C[C@H](CNC(=O)OCc2ccccc2)C[C@@H]2c3cccc4c3c(cn4C)C[C@H]21 | inactive: -5.66%
55 | OCc1cnc[nH]1 | inactive: -16.1%
56 | O=c1c2ccccc2nc(/C=C/c2ccc3c(c2)OCO3)n1-c1ccccc1 | inactive: 2.37%
57 | O=C(CCCN1CCC2(CC1)C(=O)NCN2c1ccccc1)c1ccc(F)cc1 | inactive: 5.1%
58 | C=C1CC[C@@]2(O)[C@H]3Cc4ccc(O)c5c4[C@@]2(CCN3CC2CC2)[C@H]1O5 | inactive: 0.56%
59 | Cc1ccc(/C=C2/C(=O)NC(=O)N(C)C2=O)cc1 | inactive: 7.85%
60 | C=CC1CN2CCC1CC2[C@@H](OC(=O)c1ccc(OC)cc1)c1ccnc2ccccc12 (stereo not given in full) | inactive: -4.98%
61 | NCCc1c[nH]c2ccc(F)cc12 | inactive: -12.8%
62 | CCOC(=O)c1cncn1C(C)c1ccccc1 (stereo not given) | inactive: 6.55%
63 | c1cnc2c(c1)ccc1ncccc12 | inactive: -11%
64 | CCn1c(O)c(C(=O)CC2NCCc3ccccc32)c(=O)n(CC)c1=S (stereo not given) | inactive: 2.98%
65 | C[N+]1(C)CCc2cc3c(cc2[C@H]1[C@@H]1OC(=O)c2c1ccc1c2OCO1)OCO3 | inactive: -2.84% and inactive: -8.79%
